Source: a compilation of properties of binary mixtures (doi:10.2298/jsc190413047v)
Some of these densities may be calculated back from excess volumes.

Assay: xn = mol fraction of the nth substance listed

CCCCCC[n+]1ccn(C)c1.O=S(=O)([N-]S(=O)(=O)C(F)(F)F)C(F)(F)F + O=C1CCCO1
Details | mass density [kg/m3]
313.15 K, 100 kPa, x2 = 0.9493 | 1156.5

CCCC[N+]1(C)CCCC1.FC(F)(F)C(F)(F)[P-](F)(F)(F)(C(F)(F)C(F)(F)F)C(F)(F)C(F)(F)F + CC(=O)N(C)C
101 kPa
Details | mass density [kg/m3]
298.15 K, x2 = 0.1531 | 1551.5
303.15 K, x1 = 0.0182 | 974.1
313.15 K, x2 = 0.2922 | 1498.5
313.15 K, x2 = 0.3952 | 1465.5
318.15 K, x2 = 0.901 | 1103.5
323.15 K, x2 = 0.4988 | 1414.5

CCCC[N+]1(C)CCCC1.O=S(=O)([N-]S(=O)(=O)C(F)(F)F)C(F)(F)F + O=C1CCCO1
mass density [kg/m3], 100 kPa
Details | 293.15 K | 298.15 K | 303.15 K | 308.15 K | 313.15 K | 318.15 K | 323.15 K
x2 = 0 | 1399 | 1394.6 | 1390 | 1385.5 | 1380.9 | 1376.3 | 1371.6
x2 = 0.0551 | 1394.4 | 1390 | 1385.5 | 1381 | 1376.4 | 1371.8 | –
x2 = 0.1124 | 1389.7 | 1385.3 | 1380.9 | 1376.4 | 1371.8 | 1367.2 | 1362.5
x2 = 0.2001 | – | 1377.8 | 1373.3 | 1368.8 | 1364.2 | 1359.5 | 1354.8
x2 = 0.2625 | 1376.1 | – | 1367.2 | 1362.7 | 1358 | 1353.4 | 1348.7
x2 = 0.3443 | 1367.1 | 1362.6 | 1358.1 | 1353.4 | 1348.8 | 1344.1 | 1339.3
x2 = 0.401 | 1359.8 | – | 1350.7 | 1346 | 1341.4 | 1336.6 | –
x2 = 0.4486 | 1352.9 | 1348.3 | 1343.7 | 1339 | 1334.4 | 1329.6 | –
x2 = 0.5079 | 1343.1 | 1338.5 | 1333.8 | 1329.2 | – | 1319.7 | 1314.9
x2 = 0.5985 | – | 1320.4 | 1315.7 | – | – | 1301.4 | 1296.5
x2 = 0.6545 | 1311.4 | 1306.8 | – | – | – | 1287.7 | 1282.8
x2 = 0.6946 | 1300.2 | 1295.6 | 1290.8 | 1286.1 | 1281.3 | 1276.4 | –
x2 = 0.7593 | 1279 | 1274.3 | 1269.5 | 1264.7 | 1259.9 | 1254.9 | 1250
x2 = 0.8052 | 1260.8 | 1256 | – | 1246.4 | 1241.6 | 1236.6 | 1231.6
x2 = 0.9043 | 1208.5 | 1203.7 | 1198.8 | 1193.9 | – | 1183.9 | 1178.8
x2 = 0.9509 | 1174.7 | 1169.8 | – | 1160 | 1154.9 | 1149.9 | –
x2 = 0.9746 | 1154.3 | 1149.4 | 1144.4 | 1139.4 | – | 1129.3 | 1124.1

O=C1CCCO1 + CCCC[N+]1(C)CCCC1.O=S(=O)([N-]S(=O)(=O)C(F)(F)F)C(F)(F)F
100 kPa, x1 = 1
Details | mass density [kg/m3]
293.15 K | 1129.2
298.15 K | 1124.3
303.15 K | 1119.3
308.15 K | 1114.3
313.15 K | 1109.2
318.15 K | 1104.1
323.15 K | 1098.9

O=C1CCCCCO1 + CCCC[n+]1ccn(C)c1.O=S(=O)([N-]S(=O)(=O)C(F)(F)F)C(F)(F)F
100 kPa
Details | mass density [kg/m3]
293.15 K, x1 = 0.8998 | 1161.5
298.15 K, x1 = 0.3691 | 1372.5
303.15 K, x1 = 0.5097 | 1331.5

CC1CCC(=O)O1 (stereo not drawn) + CCCC[n+]1ccn(C)c1.O=S(=O)([N-]S(=O)(=O)C(F)(F)F)C(F)(F)F
100 kPa
Details | mass density [kg/m3]
308.15 K, x1 = 0.8002 | 1208.5
318.15 K, x1 = 0.9495 | 1084.5

CCCC[N+]1(C)CCCC1.FC(F)(F)C(F)(F)[P-](F)(F)(F)(C(F)(F)C(F)(F)F)C(F)(F)C(F)(F)F + CNC=O
mass density [kg/m3], 101 kPa
Details | x2 = 0.0971 | x2 = 0.1587 | x2 = 0.4036 | x2 = 0.962
298.15 K | 1571.5 | – | – | –
303.15 K | – | 1557.5 | 1513.5 | 1105.5
